Laboratory results: the supplement of paper PMC11741623
Some of the results follow. Interaction screen of human proteins with wild-type SARS-CoV-2 proteins by split-DHFR complementation in yeast, 1 µg/mL methotrexate. Value = fitness of the pair (three or more lineages) minus that of the viral protein without a human partner, on a scale set by negative (0) and fused positive (1) controls, mean of up to three cultures; higher = more likely to interact. Active = false discovery rate below 0.05 (one-sided t-test) in at least one culture. Nearly all pairs are not hits, and differences among them are mostly noise (correlation between cultures about 0.3); most hits were seen in one culture only. Human sequences are the Swiss-Prot entries looked up by gene name; the clone may be another isoform. NSP2 values were corrected by the authors for a growth advantage. Listed are human proteins with a hit and a random twelfth of the others.

Tests used:
Test in all cases: yeast fitness gain over the viral ORF with no human partner (scaled fitness); higher = more likely to interact
SARS-CoV-2 E = biological target: SARS-CoV-2 E
Experimental: (§1)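 Split mouse DHFR complementation in pooled diploid yeast: human ORFeome clones carry one fragment and viral ORFs the other; barcoded lineages compete in 1 µg/mL methotrexate and fitness is read by barcode sequencing in up to three cultures.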

SARS-CoV-2 M = biological target: SARS-CoV-2 M
Experimental: as §1

SARS-CoV-2 N = biological target: SARS-CoV-2 N
Experimental: as §1

SARS-CoV-2 NSP1 = biological target: SARS-CoV-2 NSP1
Experimental: as §1

SARS-CoV-2 NSP10 = biological target: SARS-CoV-2 NSP10
Experimental: as §1

SARS-CoV-2 NSP12 = biological target: SARS-CoV-2 NSP12
Experimental: as §1

SARS-CoV-2 NSP13 = biological target: SARS-CoV-2 NSP13
Experimental: as §1

SARS-CoV-2 NSP14 = biological target: SARS-CoV-2 NSP14
Experimental: as §1

SARS-CoV-2 NSP15 = biological target: SARS-CoV-2 NSP15
Experimental: as §1

SARS-CoV-2 NSP16 = biological target: SARS-CoV-2 NSP16
Experimental: as §1

SARS-CoV-2 NSP2 = biological target: SARS-CoV-2 NSP2
Experimental: as §1

SARS-CoV-2 NSP4 = biological target: SARS-CoV-2 NSP4
Experimental: as §1

SARS-CoV-2 NSP5 = biological target: SARS-CoV-2 NSP5
Experimental: as §1

SARS-CoV-2 NSP6 = biological target: SARS-CoV-2 NSP6
Experimental: as §1

SARS-CoV-2 NSP7 = biological target: SARS-CoV-2 NSP7
Experimental: as §1

SARS-CoV-2 NSP8 = biological target: SARS-CoV-2 NSP8
Experimental: as §1

SARS-CoV-2 NSP9 = biological target: SARS-CoV-2 NSP9
Experimental: as §1

SARS-CoV-2 ORF10 = biological target: SARS-CoV-2 ORF10
Experimental: as §1

SARS-CoV-2 ORF3A = biological target: SARS-CoV-2 ORF3A
Experimental: as §1

SARS-CoV-2 ORF3B = biological target: SARS-CoV-2 ORF3B
Experimental: as §1

SARS-CoV-2 ORF6 = biological target: SARS-CoV-2 ORF6
Experimental: as §1

SARS-CoV-2 ORF7A = biological target: SARS-CoV-2 ORF7A
Experimental: as §1

SARS-CoV-2 ORF7B = biological target: SARS-CoV-2 ORF7B
Experimental: as §1

SARS-CoV-2 ORF8 = biological target: SARS-CoV-2 ORF8
Experimental: as §1

SARS-CoV-2 ORF9B = biological target: SARS-CoV-2 ORF9B
Experimental: as §1

[1] = biological target: SARS-CoV-2 ORF9Bwu (the 73-codon ORF)
Experimental: as §1

SARS-CoV-2 S = biological target: SARS-CoV-2 S
Experimental: as §1

Measured: yeast fitness gain

B1: PPAP2B, O14495 (protein)
chain: MQNYKYDKAIVPESKNGGSPALNNNPRRSGSKRVLLICLDLFCLFMAGLPFLIIETSTIKPYHRGFYCNDESIKYPLKTGETINDAVLCAVGIVIAILAIITGEFYRIYYLKKSRSTIQNPYVAALYKQVGCFLFGCAISQSFTDIAKVSIGRLRPHFLSVCNPDFSQINCSEGYIQNYRCRGDDSKVQEARKSFFSGHASFSMYTMLYLVLYLQARFTWRGARLLRPLLQFTLIMMAFYTGLSRVSDHKHHPSDVLAGFAQGALVACCIVFFVSDLFKTKTTLSLPAPAIRKEILSPVDIIDRNNHHNMM
inactive: SARS-CoV-2 E -0.0442 | SARS-CoV-2 M -0.112 | SARS-CoV-2 N 0.0163 | SARS-CoV-2 NSP1 = -0.000347 | SARS-CoV-2 NSP10 = -0.0413 | SARS-CoV-2 NSP12 = -0.0141 | SARS-CoV-2 NSP13 = -0.0254 | SARS-CoV-2 NSP14 = 0.0962 | SARS-CoV-2 NSP15 = -0.0736 | SARS-CoV-2 NSP16 = 0.0753 | SARS-CoV-2 NSP2 = -0.21 | SARS-CoV-2 NSP4 = 0.06 | SARS-CoV-2 NSP5 = -0.0216 | SARS-CoV-2 NSP6 = 0.00608 | SARS-CoV-2 NSP7 = 0.0395 | SARS-CoV-2 NSP8 = -0.0527 | SARS-CoV-2 NSP9 = 0.0431 | SARS-CoV-2 ORF10 = -0.0161 | SARS-CoV-2 ORF3A 0.0542 | SARS-CoV-2 ORF3B -0.0378 | SARS-CoV-2 ORF6 = 0.0364 | SARS-CoV-2 ORF7A 0.114 | SARS-CoV-2 ORF7B 0.123 | SARS-CoV-2 ORF8 = -0.0224 | SARS-CoV-2 ORF9B -0.0294 | [1] 0.00373 | SARS-CoV-2 S 0.0425

B2: PVALB, P20472 (protein)
chain: MSMTDLLNAEDIKKAVGAFSATDSFDHKKFFQMVGLKKKSADDVKKVFHMLDKDKSGFIEEDELGFILKGFSPDARDLSAKETKMLMAAGDKDGDGKIGVDEFSTLVAES
active: SARS-CoV-2 NSP2 = 0.151
inactive: SARS-CoV-2 E -0.0531 | SARS-CoV-2 M 0.0671 | SARS-CoV-2 N -0.115 | SARS-CoV-2 NSP1 = 0.0967 | SARS-CoV-2 NSP10 = 0.00812 | SARS-CoV-2 NSP12 = 0.0524 | SARS-CoV-2 NSP13 = 0.00509 | SARS-CoV-2 NSP14 = 0.0954 | SARS-CoV-2 NSP15 = -0.00628 | SARS-CoV-2 NSP16 = 0.0553 | SARS-CoV-2 NSP4 = 0.12 | SARS-CoV-2 NSP5 = 0.00431 | SARS-CoV-2 NSP6 = 0.0367 | SARS-CoV-2 NSP7 = 0.0143 | SARS-CoV-2 NSP8 = 0.0124 | SARS-CoV-2 NSP9 = 0.00385 | SARS-CoV-2 ORF10 = -0.0175 | SARS-CoV-2 ORF3A 0.0967 | SARS-CoV-2 ORF3B 0.0199 | SARS-CoV-2 ORF6 = 0.0258 | SARS-CoV-2 ORF7A 0.024 | SARS-CoV-2 ORF7B 0.0492 | SARS-CoV-2 ORF8 = 0.0448 | SARS-CoV-2 ORF9B -0.0336 | [1] 0.0539 | SARS-CoV-2 S -0.0516

B3: SPACA1, Q9HBV2 (protein)
chain: MSPRGTGCSAGLLMTVGWLLLAGLQSARGTNVTAAVQDAGLAHEGEGEEETENNDSETAENYAPPETEDVSNRNVVKEVEFGMCTVTCGIGVREVILTNGCPGGESKCVVRVEECRGPTDCGWGKPISESLESVRLACIHTSPLNRFKYMWKLLRQDQQSIILVNDSAILEVRKESHPLAFECDTLDNNEIVATIKFTVYTSSELQMRRSSLPATDAALIFVLTIGVIICVFIIFLLIFIIINWAAVKAFWGAKASTPEVQSEQSSVRYKDSTSLDQLPTEMPGEDDALSEWNE
inactive: SARS-CoV-2 E -0.186 | SARS-CoV-2 M 0.0367 | SARS-CoV-2 NSP1 = 0.00656 | SARS-CoV-2 NSP10 = -0.0224 | SARS-CoV-2 NSP12 = 0.0747 | SARS-CoV-2 NSP13 = 0.0633 | SARS-CoV-2 NSP14 = 0.0661 | SARS-CoV-2 NSP16 = -0.0159 | SARS-CoV-2 NSP2 = -0.0166 | SARS-CoV-2 NSP4 = -0.0345 | SARS-CoV-2 NSP5 = 0.0338 | SARS-CoV-2 NSP6 = -0.0148 | SARS-CoV-2 NSP7 = 0.0189 | SARS-CoV-2 NSP8 = 0.0113 | SARS-CoV-2 NSP9 = 0.0982 | SARS-CoV-2 ORF10 = -0.0566 | SARS-CoV-2 ORF3B -0.0649 | SARS-CoV-2 ORF6 = -0.018 | SARS-CoV-2 ORF7A -0.0143 | SARS-CoV-2 ORF7B 0.0309 | SARS-CoV-2 ORF8 = 0.0551 | SARS-CoV-2 ORF9B 0.0895 | [1] 0.0743 | SARS-CoV-2 S 0.0635

B4: TMEM9, Q9P0T7 (protein)
chain: MKLLSLVAVVGCLLVPPAEANKSSEDIRCKCICPPYRNISGHIYNQNVSQKDCNCLHVVEPMPVPGHDVEAYCLLCECRYEERSTTTIKVIIVIYLSVVGALLLYMAFLMLVDPLIRKPDAYTEQLHNEEENEDARSMAAAAASLGGPRANTVLERVEGAQQRWKLQVQEQRKTVFDRHKMLS
inactive: SARS-CoV-2 E -0.117 | SARS-CoV-2 M 0.144 | SARS-CoV-2 N 0.0218 | SARS-CoV-2 NSP1 = 0.0411 | SARS-CoV-2 NSP10 = 0.0481 | SARS-CoV-2 NSP12 = -0.0839 | SARS-CoV-2 NSP13 = 0.0181 | SARS-CoV-2 NSP14 = -0.00236 | SARS-CoV-2 NSP15 = 0.0633 | SARS-CoV-2 NSP16 = 0.0228 | SARS-CoV-2 NSP2 = -0.133 | SARS-CoV-2 NSP4 = -0.299 | SARS-CoV-2 NSP5 = -0.103 | SARS-CoV-2 NSP6 = 0.0021 | SARS-CoV-2 NSP7 = -0.127 | SARS-CoV-2 NSP8 = -0.0345 | SARS-CoV-2 NSP9 = -0.383 | SARS-CoV-2 ORF10 = -0.067 | SARS-CoV-2 ORF3A 0.0326 | SARS-CoV-2 ORF3B 0.0838 | SARS-CoV-2 ORF6 = 0.0502 | SARS-CoV-2 ORF7A 0.0624 | SARS-CoV-2 ORF7B 0.0489 | SARS-CoV-2 ORF8 = 0.108 | SARS-CoV-2 ORF9B -0.0431 | [1] -0.0873 | SARS-CoV-2 S 0.0104

B5: TRIM29, Q14134 (protein)
chain: MEAADASRSNGSSPEARDARSPSGPSGSLENGTKADGKDAKTTNGHGGEAAEGKSLGSALKPGEGRSALFAGNEWRRPIIQFVESGDDKNSNYFSMDSMEGKRSPYAGLQLGAAKKPPVTFAEKGELRKSIFSESRKPTVSIMEPGETRRNSYPRADTGLFSRSKSGSEEVLCDSCIGNKQKAVKSCLVCQASFCELHLKPHLEGAAFRDHQLLEPIRDFEARKCPVHGKTMELFCQTDQTCICYLCMFQEHKNHSTVTVEEAKAEKETELSLQKEQLQLKIIEIEDEAEKWQKEKDRIKSFTTNEKAILEQNFRDLVRDLEKQKEEVRAALEQREQDAVDQVKVIMDALDERAKVLHEDKQTREQLHSISDSVLFLQEFGALMSNYSLPPPLPTYHVLLEGEGLGQSLGNFKDDLLNVCMRHVEKMCKADLSRNFIERNHMENGGDHRYVNNYTNSFGGEWSAPDTMKRYSMYLTPKGGVRTSYQPSSPGRFTKETTQKNFNNLYGTKGNYTSRVWEYSSSIQNSDNDLPVVQGSSSFSLKGYPSLMRSQSPKAQPQTWKSGKQTMLSHYRPFYVNKGNGIGSNEAP
inactive: SARS-CoV-2 E -0.0563 | SARS-CoV-2 M -0.0885 | SARS-CoV-2 N 0.0515 | SARS-CoV-2 NSP1 = -0.102 | SARS-CoV-2 NSP10 = -0.0101 | SARS-CoV-2 NSP12 = -0.0883 | SARS-CoV-2 NSP13 = 0.00923 | SARS-CoV-2 NSP14 = -0.0746 | SARS-CoV-2 NSP15 = -0.0103 | SARS-CoV-2 NSP16 = -0.0607 | SARS-CoV-2 NSP2 = -0.106 | SARS-CoV-2 NSP5 = 0.0327 | SARS-CoV-2 NSP6 = -0.0629 | SARS-CoV-2 NSP7 = -0.0725 | SARS-CoV-2 NSP8 = -0.0262 | SARS-CoV-2 NSP9 = -0.0902 | SARS-CoV-2 ORF10 = 0.0582 | SARS-CoV-2 ORF3A 0.0544 | SARS-CoV-2 ORF3B 0.00663 | SARS-CoV-2 ORF6 = 0.0413 | SARS-CoV-2 ORF7A -0.024 | SARS-CoV-2 ORF7B 0.00963 | SARS-CoV-2 ORF8 = -0.0214 | SARS-CoV-2 ORF9B 0.0306 | [1] -0.115 | SARS-CoV-2 S -0.113
